Drawing on a collection of fitness landscapes (doi:10.1126/science.1257360), this text covers enrichment ratio for 153 variants.

B1: PhoQ; a variant is named by its letters at X, in order, P23837 (parent)
chain: MKKLLRLFFPLSLRVRFLLATAAVVLVLSLAYGMVALIGYSVSFDKTTFRLLRGESNLFYTLAKWENNKLHVELPENIDKQSPTMTLIYDENGQLLWAQRDVPWLMKMIQPDWLKSNGFHEIEADVNDTSLLLSGDHSIQQQLQEVREDDDDAEMTHSVAVNVYPATSRMPKLTIVVVDTIPVELKSSYMVWSWFIYVLSANLLLVIPLLWVAAWWSLRPIEALAKEVRELEEHNRELLNPATTRELTSLVRNLNRLLKSERERYDKYRTTLTDLTHSLKTPLXXLQXXLRSLRSEKMSVSDAEPVMLEQISRISQQIGYYLHRASMRGGTLLSRELHPVAPLLDNLTSALNKVYQRKGVNISLDISPEISFVGEQNDFVEVMGNVLDNACKYCLEFVEISARQTDEHLYIVVEDDGPGIPLSKREVIFDRGQRVDTLRPGQGVGLAVAREITEQYEGKIVAGESMLGGARMEVIFGRQHSAPKDE

Some of the results follow. Where only a bound is given, the exact number is not on record here.

Variants of B1 are the subject of this assay. The assay is described as follows: enrichment ratio after two sorts for PhoP signalling (ratio (wild type AVST 3.29)); higher = more functional. As to conditions: with PhoP (E. coli).
Take PSSM: the enrichment ratio was ≤ 0.25.

For the variant RGSN, the enrichment ratio is ≤ 0.25.

Consider HVPV, for which the enrichment ratio is ≤ 0.25.

On to SRKS, for which the enrichment ratio was ≤ 0.25.

Turning to WTKN, the enrichment ratio was ≤ 0.25.

With WRPQ, the enrichment ratio is ≤ 0.25.

Consider KRVP, for which the enrichment ratio was ≤ 0.25.

As for LKEY, the enrichment ratio was ≤ 0.25.

Regarding YMRP, the enrichment ratio is ≤ 0.25.

For DWFL, the enrichment ratio is ≤ 0.25.

On to SMGE, for which the enrichment ratio was determined as 4.03.

Take WTVP: the enrichment ratio was ≤ 0.25.

As for GCWN, the enrichment ratio was ≤ 0.25.

Turning to SKNN, the enrichment ratio was ≤ 0.25.

Take HHEF: the enrichment ratio is ≤ 0.25.

With YSSD, the enrichment ratio was ≤ 0.25.

As for PRKE, the enrichment ratio is ≤ 0.25.

As for APGH, the enrichment ratio is ≤ 0.25.

Take ILSR: the enrichment ratio was ≤ 0.25.

Regarding HMAM, the enrichment ratio is ≤ 0.25.

As for FIPT, the enrichment ratio is ≤ 0.25.

RKHH: the enrichment ratio is ≤ 0.25.

As for FNIN, the enrichment ratio is ≤ 0.25.

Consider VNYN, for which the enrichment ratio is ≤ 0.25.

Turning to SPTD, the enrichment ratio was ≤ 0.25.

Turning to SWIY, the enrichment ratio was ≤ 0.25.

On to HPIE, for which the enrichment ratio is ≤ 0.25.

NQKP: the enrichment ratio was ≤ 0.25.

As for YDPW, the enrichment ratio is ≤ 0.25.

As for GFVL, the enrichment ratio is ≤ 0.25.

Consider LFNY, for which the enrichment ratio was ≤ 0.25.

Consider TMVK, for which the enrichment ratio is ≤ 0.25.

DTWM: the enrichment ratio is ≤ 0.25.

For the variant GRQR, the enrichment ratio is ≤ 0.25.

For the variant AYRF, the enrichment ratio was ≤ 0.25.

Consider TACR, for which the enrichment ratio came to 14.8.

In the case of AYRK, the enrichment ratio was ≤ 0.25.

Consider RFGK, for which the enrichment ratio was ≤ 0.25.

For the variant VAKA, the enrichment ratio is ≤ 0.25.

With NSCN, the enrichment ratio was ≤ 0.25.

Turning to DAQD, the enrichment ratio was ≤ 0.25.

For IHDL, the enrichment ratio is ≤ 0.25.

HHCV: the enrichment ratio was ≤ 0.25.

Take APSS: the enrichment ratio is ≤ 0.25.

With VDPD, the enrichment ratio was ≤ 0.25.

As for DSIA, the enrichment ratio was ≤ 0.25.

As to FKEG, the enrichment ratio is ≤ 0.25.

Turning to PDCS, the enrichment ratio is ≤ 0.25.

Regarding VCYV, the enrichment ratio was ≤ 0.25.

NPCN: the enrichment ratio was ≤ 0.25.

In the case of PYLA, the enrichment ratio was ≤ 0.25.

As to KRWC, the enrichment ratio was ≤ 0.25.

Regarding IMCL, the enrichment ratio was ≤ 0.25.

On to RHWQ, for which the enrichment ratio is ≤ 0.25.

Consider SLYP, for which the enrichment ratio is 0.913.

For PRSE, the enrichment ratio is ≤ 0.25.

On to NHAA, for which the enrichment ratio was ≤ 0.25.

With DLYM, the enrichment ratio was ≤ 0.25.

As to SYED, the enrichment ratio was ≤ 0.25.

In the case of RQQG, the enrichment ratio was ≤ 0.25.

With QNRV, the enrichment ratio was ≤ 0.25.

As for SKTR, the enrichment ratio was ≤ 0.25.

As to FKYV, the enrichment ratio was ≤ 0.25.

For the variant YALM, the enrichment ratio stood at 12.7.

For the variant PKRN, the enrichment ratio was ≤ 0.25.

For the variant LSGP, the enrichment ratio is ≤ 0.25.

Turning to RGKS, the enrichment ratio was ≤ 0.25.

Consider WWLA, for which the enrichment ratio was ≤ 0.25.

Turning to FRGP, the enrichment ratio is ≤ 0.25.

Regarding KHNT, the enrichment ratio was ≤ 0.25.

For SAQQ, the enrichment ratio was 3.36.

As for ACQL, the enrichment ratio is 0.353.

In the case of GHTF, the enrichment ratio was ≤ 0.25.

For the variant LKNE, the enrichment ratio was ≤ 0.25.

With RENF, the enrichment ratio is ≤ 0.25.

For WPLW, the enrichment ratio was ≤ 0.25.

For NVKK, the enrichment ratio is ≤ 0.25.

For DGSR, the enrichment ratio was 0.412.

Consider NSHR, for which the enrichment ratio was ≤ 0.25.

As for DMGK, the enrichment ratio is ≤ 0.25.

Consider RGKR, for which the enrichment ratio was ≤ 0.25.

QPTQ: the enrichment ratio is ≤ 0.25.

IENP: the enrichment ratio was ≤ 0.25.

With AGMP, the enrichment ratio was ≤ 0.25.

With IFEP, the enrichment ratio turned out to be 0.883.

Take DSIE: the enrichment ratio is ≤ 0.25.

Take AFPL: the enrichment ratio was ≤ 0.25.

For HETC, the enrichment ratio is 3.38.

As to TPTD, the enrichment ratio was ≤ 0.25.

Turning to QCAI, the enrichment ratio was ≤ 0.25.

With TMMG, the enrichment ratio worked out at 23.4.

As for ACCM, the enrichment ratio amounted to 14.9.

For the variant WDDL, the enrichment ratio was ≤ 0.25.

As to TDEV, the enrichment ratio was ≤ 0.25.

With ILSF, the enrichment ratio is ≤ 0.25.

Take VQKM: the enrichment ratio was ≤ 0.25.

For the variant KDCG, the enrichment ratio was ≤ 0.25.

Turning to PILW, the enrichment ratio was ≤ 0.25.

As for AAIP, the enrichment ratio was ≤ 0.25.

On to DYQN, for which the enrichment ratio is ≤ 0.25.

Regarding PLIN, the enrichment ratio was ≤ 0.25.

For the variant SWWP, the enrichment ratio was ≤ 0.25.

For the variant AQWQ, the enrichment ratio was ≤ 0.25.

Consider THFR, for which the enrichment ratio was ≤ 0.25.

As for QGFG, the enrichment ratio was 0.598.

Take GGAS: the enrichment ratio came to 0.78.

For LREP, the enrichment ratio is ≤ 0.25.

For the variant ELST, the enrichment ratio is ≤ 0.25.

For the variant ASKE, the enrichment ratio is ≤ 0.25.

In the case of VKCL, the enrichment ratio was ≤ 0.25.

With KIIT, the enrichment ratio is ≤ 0.25.

With YTLM, the enrichment ratio was 9.3.

Consider KGGF, for which the enrichment ratio is ≤ 0.25.

As for YEVT, the enrichment ratio worked out at 0.273.

Consider FPWL, for which the enrichment ratio was ≤ 0.25.

As for QCLD, the enrichment ratio was ≤ 0.25.

With AHGL, the enrichment ratio was ≤ 0.25.

With GEYL, the enrichment ratio was ≤ 0.25.

Turning to LLIK, the enrichment ratio is ≤ 0.25.

For EFVM, the enrichment ratio was ≤ 0.25.

As to DTEP, the enrichment ratio was ≤ 0.25.

Consider NVPD, for which the enrichment ratio is ≤ 0.25.

WDSC: the enrichment ratio was ≤ 0.25.

Regarding NEDA, the enrichment ratio was ≤ 0.25.

For IDVG, the enrichment ratio is ≤ 0.25.

For the variant RMLW, the enrichment ratio was ≤ 0.25.

With FWFA, the enrichment ratio was ≤ 0.25.

Take HKPY: the enrichment ratio was ≤ 0.25.

Consider WQIF, for which the enrichment ratio is ≤ 0.25.

With IQEC, the enrichment ratio was ≤ 0.25.

For TVIC, the enrichment ratio was ≤ 0.25.

Turning to VMGD, the enrichment ratio is ≤ 0.25.

On to LQLR, for which the enrichment ratio is ≤ 0.25.

Consider ARCI, for which the enrichment ratio worked out at 6.48.

For ADCS, the enrichment ratio was ≤ 0.25.

Take DAEG: the enrichment ratio was ≤ 0.25.

As for LMIK, the enrichment ratio was ≤ 0.25.

Turning to SQGD, the enrichment ratio was ≤ 0.25.

Consider YPCW, for which the enrichment ratio was ≤ 0.25.

As for EDQQ, the enrichment ratio is ≤ 0.25.

On to SYQS, for which the enrichment ratio was ≤ 0.25.

On to NSDQ, for which the enrichment ratio was ≤ 0.25.

For RLHD, the enrichment ratio is ≤ 0.25.

Consider SWCN, for which the enrichment ratio was ≤ 0.25.

As to LFSH, the enrichment ratio is ≤ 0.25.

Regarding TWKF, the enrichment ratio is ≤ 0.25.

Consider QMLM, for which the enrichment ratio is ≤ 0.25.

Take HFYT: the enrichment ratio is ≤ 0.25.

For the variant EPTG, the enrichment ratio is ≤ 0.25.

Take DDLY: the enrichment ratio is ≤ 0.25.

Turning to NKEI, the enrichment ratio was ≤ 0.25.

Turning to PLVS, the enrichment ratio is ≤ 0.25.

In the case of YIKW, the enrichment ratio was ≤ 0.25.
